Where a name gives a salt, the structure may show the parent alone. ± gives the standard deviation of the averaged measurements. Whole data set: some 2,000 compounds, median “cell viability relative to DMSO control (compound alone)” near 0.98, cut for the lowest 2% near 0.23. The list shows a part of the results.

The assay deals with PDC-DUC18828. Description: cell viability relative to DMSO control (compound alone) (fraction); PDC-DUC18828 is a patient-derived cholangiocarcinoma cell line; higher = less growth inhibition. To be noted: 1 µM; 72 h. Here is the method:
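Selleck Bioactive library screen in the patient-derived FGFR2-G3BP2 fusion-positive ICC cell line PDC-DUC18828 (500 cells/well). Each compound was tested at 1 uM alone, in triplicate, for 72 h. Viability was read by CellTiter-Glo and normalised to plate DMSO controls.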
As to `c1ccc([C@@H]2C[C@H]2NC2CCNCC2)cc1`, the cell viability is 1.05 ± 0.047. `COc1ccc(CC2NCCc3cc(OC)c(OC)cc32)cc1OC` (configuration not stated) [Tetrahydropapaverine HCl] displayed a cell viability of 1 ± 0.04. Under `CC[C@H](C)[C@@H]([C@@H](CC(=O)N1CCC[C@H]1[C@H](OC)[C@@H](C)C(=O)N[C@H](C)[C@@H](O)c1ccccc1)OC)N(C)C(=O)[C@@H](NC(=O)[C@@H](NC)C(C)C)C(C)C` [Monomethyl auristatin E (MMAE)] stands 0.261 ± 0.018. `CC(C)OC(=O)[C@H](C)N[P@](=O)(CO[C@H](C)Cn1cnc2c(N)ncnc21)Oc1ccccc1` [Tenofovir Alafenamide (GS-7340)] yielded a cell viability of 0.915 ± 0.027. In the case of `O=[N+]([O-])c1ncc[nH]1` [Azomycin] it was 1.06 ± 0.038; in that of `O=c1cccc2n1C[C@@H]1CNC[C@H]2C1` [Cytisine], 0.924 ± 0.055.

As for `CCN1CCN(C(=O)Cc2ccc(Nc3ncc(F)c(Nc4ccc(C(=O)Nc5ccccc5Cl)cc4)n3)cc2)CC1` [Aurora A Inhibitor I], the cell viability was 0.536 ± 0.026. `CC(O)(CS(=O)(=O)c1ccc(F)cc1)C(=O)Nc1ccc(C#N)c(C(F)(F)F)c1` (configuration not stated) [Bicalutamide] gave a cell viability of 0.91 ± 0.019. Under `CCOC(=O)c1cncn1[C@H](C)c1ccccc1` [Etomidate] stands 1.01 ± 0.025; under `O=C(O)c1nn(Cc2ccc(Cl)cc2Cl)c2ccccc12` [Lonidamine], 1.02 ± 0.04; under `Cc1cc(C(C#N)c2ccc(Cl)cc2)c(Cl)cc1NC(=O)c1cc(I)cc(I)c1O` (configuration not stated) [Closantel], 1.08 ± 0.049. As for `Cc1cc(C(C#N)c2ccc(Cl)cc2)c(Cl)cc1NC(=O)c1cc(I)cc(I)c1O` (configuration not stated) [Closantel Sodium], the cell viability was 1.05 ± 0.04. For `CC(C)(C)c1cc(C=C(C#N)C#N)cc(C(C)(C)C)c1O` [Tyrphostin 9], the cell viability is 0.353 ± 0.043. Under `CCc1cc2c(s1)-n1c(C)nnc1CN=C2c1ccccc1Cl` [Etizolam] stands 0.984 ± 0.013; under `Cn1c(COP(=O)(NCCBr)NCCBr)cnc1[N+](=O)[O-]`, 1.04 ± 0.047.

For the compound `Cc1sc2c(c1C)C(c1ccc(Cl)cc1)=N[C@@H](CC(=O)OC(C)(C)C)c1nnc(C)n1-2`, the cell viability was found to be 0.853 ± 0.088. In the case of `C/C(O)=C(\C#N)C(=O)Nc1cc(Br)ccc1Br` it was 1.02 ± 0.038; in that of `Cc1ccccc1-n1c(Cn2ncc3c(N)ncnc32)nc2cccc(C)c2c1=O`, 0.995 ± 0.04. In the case of `CCN(Cc1ccc(Cl)nc1)/C(=C/[N+](=O)[O-])NC` [Nitenpyram] it was 0.995 ± 0.07. In the case of `CCC1(C)CC(=O)NC(=O)C1` [Bemegride] it was 1.111 ± 0.011; in that of `COc1cc(OC)c(OC)cc1C=O` [Asaraldehyde], 1.05 ± 0.048. `OC(c1ccccc1)(c1ccccc1)C1CCNCC1` [Azacyclonol] gave a cell viability of 1 ± 0.039.

As to `C[C@H]1CNCCc2ccc(Cl)cc21` [Lorcaserin HCl], the cell viability is 1.03 ± 0.035. `C=C1C[C@@H]2[C@H](CC[C@]3(C)C(=O)CC[C@@H]23)[C@@]2(C)C=CC(=O)C=C12` [Exemestane] gave a cell viability of 1.01 ± 0.032. In the case of `Cc1ccc(-n2nccn2)c(C(=O)N2CCN(c3nc4cc(Cl)ccc4o3)CC[C@H]2C)c1` [Suvorexant (MK-4305)] it was 1.05 ± 0.06. In the case of `CCCN1CCO[C@@H]2c3cc(O)ccc3OC[C@H]21` it was 0.937 ± 0.033; in that of `CCCCCCCCCCCCCCCC[n+]1ccccc1` [Cetylpyridinium Chloride], 0.707 ± 0.038; in that of `O=P1(N(CCCl)CCCl)NCCCO1` (configuration not stated) [Cyclophosphamide Monohydrate], 1.05 ± 0.046. `c1ccc2c(c1)sc1ccccc12` [Dibenzothiophene] registered a cell viability of 1.07 ± 0.037. Under `COc1cc(C)[nH]c(=O)c1CNC(=O)c1c(C)n([C@H](C)C2CCOCC2)c2ccccc12` stands 0.982 ± 0.025; under `CN1C(=O)CCS(=O)(=O)C1c1ccc(Cl)cc1` (configuration not stated) [Chlormezanone], 1.02 ± 0.07. `CNCC(O)c1ccc(O)cc1` (configuration not stated) [Synephrine] yielded a cell viability of 1.02 ± 0.013. As to `CNCC(O)c1ccc(O)cc1` (configuration not stated) [Synephrine HCl], the cell viability amounted to 1.01 ± 0.038. In the case of `CCOc1ccccc1-n1c(C(C)N2CCN(C(=O)COc3ccc(Cl)cc3)CC2)nc2ccccc2c1=O` (configuration not stated) [Erastin] it was 0.905 ± 0.037; in that of `CN1[C@@H]2CC[C@H]1C[C@@H](OC(=O)C(CO)c1ccccc1)C2` (some centres not stated) [Atropine], 0.993 ± 0.02; in that of `C[C@]12CCC(=O)C(O)=C1CC[C@@H]1[C@@H]2CC[C@]2(C)C(=O)CC[C@@H]12` [Formestane], 1.03 ± 0.065.

Compound `N#C[C@H](O[C@@H]1O[C@H](C(=O)O)[C@@H](O)[C@H](O)[C@H]1O)c1ccccc1` [Laetrile] yielded a cell viability of 1.09 ± 0.03. In the case of `COc1ccc(C(CN(C)C)C2(O)CCCCC2)cc1` (configuration not stated) [Venlafaxine] it was 1.08 ± 0.06; in that of `CCc1c(C(=O)C(N)=O)c2c(OCC(=O)O)cccc2n1Cc1ccccc1`, 1.02 ± 0.025; in that of `Cc1sc2c(c1C)C(c1ccc(Cl)cc1)=N[C@@H](CC(=O)Nc1ccc(O)cc1)c1nnc(C)n1-2`, 0.705 ± 0.04. Under `C[C@@H]1[C@H](O)[C@@H](C)/C=C/C=C/CC/C=C/C=C/C=C/C=C/[C@H](O[C@H]2O[C@@H](C)[C@H](O)[C@@H](N)[C@H]2O)C[C@@H]2O[C@](O)(C[C@@H](O)[C@H](O)CC[C@@H](O)C[C@@H](O)C[C@@H](O)CC(=O)O[C@H]1C)C[C@H](O)[C@H]2C(=O)O` [Nystatin (Fungicidin)] stands 0.954 ± 0.056; under `CC(C)NCC(O)c1ccccc1Cl` (configuration not stated) [Clorprenaline HCl], 1.02 ± 0.052; under `Cc1cc2c(C(C)C)c(O)c(O)c(C=O)c2c(O)c1-c1c(C)cc2c(C(C)C)c(O)c(O)c(C=O)c2c1O` [Gossypol], 0.856 ± 0.037.

In turn, `CN1CCN(c2nc3ccccc3nc2Cl)CC1` returned a cell viability of 0.94 ± 0.065. `CN(C)C(=O)Oc1ccc[n+](C)c1` [Pyridostigmine Bromide]: the cell viability came out at 0.954 ± 0.053.

As for `CCN(CC)C(=O)c1ccc(C2=CC3(CCNCC3)Oc3cccc(O)c32)cc1`, the cell viability stood at 0.966 ± 0.072.

As for `O=c1[nH]c2ccc(Cl)cc2c(N[C@@H]2CN3CCC2CC3)c1-c1nc2ccccc2[nH]1`, the cell viability stood at 0.948 ± 0.11.

For the origin of these results see the supplement of paper PMC9588766.
